Article PMC12040169 (PLOS Biology, 2025)
The other results are listed elsewhere or left out.

test system: T1, C. trachomatis L2/434/Bu expressing GFP (CTL2-GFP); parameters: species or system HeLa; C. trachomatis total inclusion area by high-content imaging, normalised to DMSO; conditions: total inclusion area; 28.5 h, 10 µM; inhibitor
T1 construct: L2/434/Bu GFP intracellular growth in HeLa cells
Procedure, shortened: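 Following bulk GFP and resorufin fluorescence reads, infected cells were fixed, Hoechst-stained and imaged on a high-content platform. Inclusion total area and number per well served as growth proxies; nuclei counts indicated host viability. MICs were derived as for the fluorescence assay.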

Row | SMILES | % of control remaining
1 | CCN1CCN(Cc2cc(Cl)ccc2OCCCn2ccnc2)CC1 [CBK306990] | 87.4369
2 | CCCC(=O)Nc1ccccc1NC(=O)c1cccc([N+](=O)[O-])c1C [CBK267398] | 104.642
3 | Cc1cc(C(=O)NCCCN(C)C)ccc1[N+](=O)[O-] [CBK262467] | 100.626
4 | COc1cc2c(cc1NS(=O)(=O)N1CCCCC1)oc1ccccc12 [CBK268355] | 110.679
5 | COc1ccc2c(c1)CCC(c1ccccc1)=C2c1ccc(OCC(O)CN)cc1 (stereo not drawn) [CBK015723C] | 12.1226
6 | Cn1c(CCNC(=O)c2cccs2)nc2cc([N+](=O)[O-])ccc21 [CBK268511] | 109.529
7 | CC1(C)Cc2c(cnn2-c2ccccc2)C(NS(=O)(=O)C2CC2)C1 (stereo not drawn) [CBK307351] | 76.9263
8 | Cc1ccc(Oc2ccc(CNC(=O)c3sc4nc[nH]c(=O)c4c3C)cc2)cc1 [CBK285857] | 83.9615
9 | COCC(=O)Nc1cc(OC)c(Cl)cc1OC [CBK264448] | 110.554
10 | O=C1OC(c2ccccc2)=C/C1=C1/C(=O)Nc2ccccc21 [CBK115375] | 96.6396
11 | COCC(C)NC(=O)c1cnn2c(C(F)(F)F)cc(-c3cccs3)nc12 (stereo not drawn) [CBK307417] | 108.567
12 | O=c1[nH]c(-c2ccccc2)nc2c1CN(Cc1cccs1)CC2 [CBK282330] | 102.716
13 | O=C(NCC1CCOCC1)c1cc(-c2cccnc2)cnc1NCc1ccc2c(c1)OCO2 [CBK154825] | 107.207
14 | Cn1cc(-c2ncc(OCCOc3ccccc3)nc2N)cn1 [CBK145171] | 91.4272
15 | O=C(Nc1nonc1-c1nc2ccccc2n1CCOC(=O)c1ccc(F)cc1)c1ccc(F)cc1 [CBK062653] | 103.429
16 | Cc1noc(C)c1C(=O)N1CCC[C@@H](C(=O)c2ccccc2F)C1 [CBK282249] | 84.5763
17 | COc1ccccc1N1CCN(CCC(=O)Nc2ccc(Br)c(C)c2)CC1 [CBK264218] | 90.6127
18 | COc1ccc([C@H]2CN(C(=O)c3ccccc3)[C@@H]3CCN(Cc4cccs4)C[C@H]23)cc1 [CBK285582] | 80.8126
19 | C=Cn1cc(CN2CCCC(c3cc4cccnc4[nH]3)C2)c(C)n1 (stereo not drawn) [CBK284944] | 61.9343
20 | Cc1n[nH]c(NC(=O)/C=C/C(=O)O)c1-c1ccc(F)cc1 [CBK287068] | 94.357

Row | SMILES | % of control remaining
21 | O=C(Cc1ccc(-c2ccccc2)cc1)N1CCC2(CC1)Nc1ccccc1S(=O)(=O)N2 [CBK286189] | 109.085
22 | COc1ccc2[nH]c3c(c2c1)CCNC31CCN(CCCN2C(=O)C3CCCCC3C2=O)C1 (stereo not drawn) [CBK059518] | 158.988
23 | O=S(=O)(Nc1cccc(-c2nnn[nH]2)c1)c1ccc(Br)s1 [CBK160377] | 95.872
24 | CN(C)S(=O)(=O)N(CC(=O)Nc1ccccc1C(F)(F)F)c1ccccc1 [CBK268665] | 120.008
25 | O=C(Oc1ccccc1)c1cc(Cl)cnc1Cl [CBK090320] | 80.4458
26 | Oc1ccc(-n2cc(-c3ccccc3C(F)(F)F)nn2)cc1 [CBK112971] | 80.5538
27 | CCC(=O)NCc1ccc(-c2cc(CN(C)C)n(C)n2)cc1 [CBK281668] | 98.1826
28 | NC(=O)Cn1c(=O)n(CCc2ccccc2)c(=O)c2c3c(sc21)CCCC3 [CBK267665] | 87.3299
29 | CC(C)C(=O)Nc1sc2c(c1C(=O)NCc1cccnc1)CCC2 [CBK306144] | 67.2645
30 | Cc1ccc(S(=O)(=O)Nc2sc3c(c2C(=O)N2CCN(C)CC2)CCCC3)cc1[N+](=O)[O-] [CBK028650] | 102.852
31 | CN(C)S(=O)(=O)Nc1ccccc1C(N)=O [CBK264382] | 91.2563
32 | Cc1cc(=O)[nH]c(CCNc2cc([C@H]3C[C@@H](N)C3)nc(C3CC3)n2)n1 [CBK307651] | 43.6978
33 | Cc1nc(C(Cc2ccsc2)NC(=O)Cn2ccnc2)sc1C (stereo not drawn) [CBK284777] | 97.7626
34 | O=C(NC1CCc2ccccc21)N1CCN(Cc2ccccc2)CC1 (stereo not drawn) [CBK155662] | 97.8052
35 | O=C1CC2(CCN(S(=O)(=O)Cc3ccc(Cl)cc3)CC2)CN1 [CBK283355] | 75.9806
36 | O=C(Cc1c[nH]c2ccccc12)N1CCCC1c1ccc(F)cc1 (stereo not drawn) [CBK297927] | 108.075
37 | CSc1ccc(CN(CCO)CCO)cc1 [CBK261931] | 89.8269
38 | CC(CNC(=O)C(C)(C)C)NC(=O)C(C)(C)C (stereo not drawn) [CBK265443] | 78.7391
39 | O=C(O)C1C2C=CC(C2)C1C(=O)N1CCN(Cc2ccccc2Cl)CC1 (stereo not drawn) [CBK270334] | 85.1031
